The source of these data is patent publication US20140155420A1, “INHIBITORS OF EYA2” (The Regents of the University of Colorado, a body corporate, priority 2011, published 2014).

Molecules are shown by their SMILES.

For this experiment, the target named is T1, Eya2 ED (Homo sapiens, UniProt O00167).
T1 sequence (O00167 253-538): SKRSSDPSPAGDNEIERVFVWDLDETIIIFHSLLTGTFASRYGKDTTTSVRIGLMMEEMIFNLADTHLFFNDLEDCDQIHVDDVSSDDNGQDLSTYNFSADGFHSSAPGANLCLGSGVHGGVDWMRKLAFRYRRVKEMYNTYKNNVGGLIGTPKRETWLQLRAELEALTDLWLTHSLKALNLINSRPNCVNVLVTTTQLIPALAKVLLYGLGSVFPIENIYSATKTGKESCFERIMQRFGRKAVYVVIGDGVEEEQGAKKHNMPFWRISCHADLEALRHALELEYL
The note with it: read-out: IC50, inhibition of Eya2 ED phosphatase activity; common phosphatase inhibitors, OMFP substrate.

As for `[Na+].[Na+].[Na+].[O]=[V]([O-])([O-])[O-]` [Na3VO4], the IC50 amounted to 1.8 mM. Next, `[F-].[Na+]` [NaF]: 6.6 mM.

For orientation: IC50 means the midpoint of a concentration-inhibition curve.
